The other results are listed elsewhere or left out. At the low end of the ranking, values are background and their order means little.

The assay deals with GST-SBP-SLBP (stem-loop binding protein) (UniProt Q14493). As to the kind of experiment: targeted RNA Bind-n-Seq.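 Further: DESeq read counts versus GST-SBP nonspecific binding control pulldown.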 The note with it: RBNS binding buffer: 25 mM Tris pH 7.5, 150 mM KCl, 3 mM MgCl2, 0.1% Tween, 0.5 mg/mL BSA, 1 mM DTT; 27 nM protein, 750 pM RNA pool; temperature not stated; high values mean tight binding.
In the case of “GGUCACGUCUCAAUCAACUCAUUUUCCAGGGAAAUCCCUGGCAUAUUCAACAGCUCGCAGUCAAG”, the binding signal (log2 fold change) was 0.33. The figure for “GGUCACGUCUCAAUCAACUCAAUUCCAGGAGUUUGCUCCUGCUAAUUCAACAGCUCGCAGUCAAG” is 0.294. As to “GGUCACGUCUCAAUCAACUCAGUCCCCAGGGAAAGCCCUGGCAAAUUCAACAGCUCGCAGUCAAG”, the binding signal (log2 fold change) is -0.243. With “GGUCACGUCUCAAUCAACUCUUUCGCAGGAGUUUUCUCCUGGUUAUUCAACAGCUCGCAGUCAAG”, the binding signal (log2 fold change) is -0.102. As for “GGUCACGUCUCAAUCAACUCCCCAGAGGGGGGGAAAACCCCUUUACCCUCAAUUUCAACAGCUCGCAGUCAAG”, the figure is -0.476; as for “GGUCACGUCUCAAUCAACUCACAAGAGGGGGGGAAAACCCCUUUACCCUCGUCCUCAACAGCUCGCAGUCAAG”, 0.385; as for “GGUCACGUCUCAAUCAACUCAACUCCAGGAGUUUACUCCUGCAAUGUCAACAGCUCGCAGUCAAG”, 0.0962. As for “GGUCACGUCUCAAUCAACUCUAUCCCAGGAGUUUACUCCUGCAUAUUCAACAGCUCGCAGUCAAG”, the figure is -0.0994. As for “GGUCACGUCUCAAUCAACUCUAUUUCAGGAGUUUCCUCCUGUUUUCUCAACAGCUCGCAGUCAAG”, the binding signal (log2 fold change) was -0.03. As for “GGUCACGUCUCAAUCAACUCAUCGUCAGGAGUUUUCUCCUGUAAAUUCAACAGCUCGCAGUCAAG”, the figure is 0.0518; as for “GGUCACGUCUCAAUCAACUCUUCUCCAGGAGUUUACUCCUGUAUACUCAACAGCUCGCAGUCAAG”, -0.0724. The figure for “GGUCACGUCUCAAUCAACUCAAUUCCAGGAGUUUCCUCCUGCUUUUUCAACAGCUCGCAGUCAAG” is 0.00527.

Turning to “GGUCACGUCUCAAUCAACUCUCUAGAGGGGGGGAAAACCCCUUUACCCUCCAAUUCAACAGCUCGCAGUCAAG”, the binding signal (log2 fold change) was 0.0236.

With “GGUCACGUCUCAAUCAACUCUUUUUCAGGAGUUUACUCCUGCAUAUUCAACAGCUCGCAGUCAAG”, the binding signal (log2 fold change) is -0.181. The figure for “GGUCACGUCUCAAUCAACUCUUUCCCAGGAGUUUUCUCCUGUAUAUUCAACAGCUCGCAGUCAAG” is -0.163; for “GGUCACGUCUCAAUCAACUCAUUUCCAGGAGUUUACUCCUGCAAUCUCAACAGCUCGCAGUCAAG” it is -0.102; for “GGUCACGUCUCAAUCAACUCAGUUUCAGGAGUUUUCUCCUGCUUAUUCAACAGCUCGCAGUCAAG” it is 0.0671. The figure for “GGUCACGUCUCAAUCAACUCUAUCCCAGGAGUUUUCUCCUGCAUUUUCAACAGCUCGCAGUCAAG” is 0.269; for “GGUCACGUCUCAAUCAACUCAUUAGAGGGGGGGAAAACCCCUUUGCCCUCAAUAUCAACAGCUCGCAGUCAAG” it is -0.227. The figure for “GGUCACGUCUCAAUCAACUCUAUUCCCAGGGAAAGCCCUGGUUAAUUCAACAGCUCGCAGUCAAG” is -0.0505. As for “GGUCACGUCUCAAUCAACUCACAAGAGGGGGGGAAAACCCCUUUACCCUCAAUAUCAACAGCUCGCAGUCAAG”, the binding signal (log2 fold change) was found to be 0.299.

On to “GGUCACGUCUCAAUCAACUCAUUCCCAGGAGUUUUCUCCUGCUUACUCAACAGCUCGCAGUCAAG”, for which the binding signal (log2 fold change) was 0.0732. The figure for “GGUCACGUCUCAAUCAACUCUCCCGAGGGGGGGAAAACCCCUUUACCCUCAUCAUCAACAGCUCGCAGUCAAG” is -0.445; for “GGUCACGUCUCAAUCAACUCAUCGUCCAGGGAAAGCCCUGGUUUUUUCAACAGCUCGCAGUCAAG” it is -0.153. As to “GGUCACGUCUCAAUCAACUCAUCUCCCAGGGAAAUCCCUGGCUAUUUCAACAGCUCGCAGUCAAG”, the binding signal (log2 fold change) was 0.0905. The figure for “GGUCACGUCUCAAUCAACUCAAACGAGGGGGGGAAAACCCCUUUACCCUCUACAUCAACAGCUCGCAGUCAAG” is 0.0245.

Regarding “GGUCACGUCUCAAUCAACUCAACUUCAGGAGUUUACUCCUGCUUACUCAACAGCUCGCAGUCAAG”, the binding signal (log2 fold change) was -0.0735. On to “GGUCACGUCUCAAUCAACUCAUCCCCAGGAGUUUCCUCCUGUUAUUUCAACAGCUCGCAGUCAAG”, for which the binding signal (log2 fold change) was -0.0545. Consider “GGUCACGUCUCAAUCAACUCUUUAGAGGGGGGGAAAACCCCUUUACCCUCCAAUUCAACAGCUCGCAGUCAAG”, for which the binding signal (log2 fold change) was -0.565.

Consider “GGUCACGUCUCAAUCAACUCUAAAGAGGGGGGGAAAACCCCUUUGCCCUCAAAAUCAACAGCUCGCAGUCAAG”, for which the binding signal (log2 fold change) was determined as 0.0428. With “GGUCACGUCUCAAUCAACUCUACUUCCAGGGAAAUCCCUGGCUAAUUCAACAGCUCGCAGUCAAG”, the binding signal (log2 fold change) was -0.162. As for “GGUCACGUCUCAAUCAACUCUUCCUCCAGGGAAACCCCUGGCUAUCUCAACAGCUCGCAGUCAAG”, the figure is -0.019; as for “GGUCACGUCUCAAUCAACUCUAUCUCCAGGGAAAUCCCUGGUAAUUUCAACAGCUCGCAGUCAAG”, -0.153. As for “GGUCACGUCUCAAUCAACUCUAUUUCAGGAGUUUUCUCCUGUAAACUCAACAGCUCGCAGUCAAG”, the figure is -0.0842. Turning to “GGUCACGUCUCAAUCAACUCAAUUCCAGGAGUUUCCUCCUGUUUUUUCAACAGCUCGCAGUCAAG”, the binding signal (log2 fold change) was -0.301. As for “GGUCACGUCUCAAUCAACUCAUCGUCAGGAGUUUUCUCCUGCUAAUUCAACAGCUCGCAGUCAAG”, the figure is -0.0158; as for “GGUCACGUCUCAAUCAACUCAUACGAGGGGGGGAAAACCCCUUUACCCUCAUUUUCAACAGCUCGCAGUCAAG”, -0.141.

(Values after PMC5892938.)
